The target in the test is T1, human BCMA (huBCMA) on cells (human, UniProt Q02223 1-184).
T1 construct: endogenous on H929, JD38 and other myeloma and B-cell lines and on patient plasma cells; also called native human BCMA
T1 chain: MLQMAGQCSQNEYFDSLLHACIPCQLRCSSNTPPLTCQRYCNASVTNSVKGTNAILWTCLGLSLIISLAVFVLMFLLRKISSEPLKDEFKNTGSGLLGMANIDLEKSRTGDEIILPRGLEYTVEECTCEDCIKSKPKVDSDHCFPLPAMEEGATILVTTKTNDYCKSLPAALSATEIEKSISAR
Briefly: FACS, H929 cells. For orientation: In flow cytometry, cells or beads pass a laser one at a time.

This note sets out measurements from patent publication US20150344583A1 (Amgen, published 2015).

B1: 2A1 Covariance 1 (2A1_C107T) (antibody, human IgG1, lambda)
heavy: EVQLVESGGGLVKPGRSLRLSCTASGFTFGDYALSWFRQAPGKGLEWVGVSRSKAYGGTTDYAASVKGRFTISRDDSKSFAYLQMNSLKTEDTAVYYCTSSGYSSGWTPFDYWGQGTLVTVSS[omitted - human IgG1 constant region]
light: QSVLTQPPSASGTPGQRVTISCSGSSSNIGSNTVNWYQQLPGTAPKLLIFNYHQRPSGVPDRFSGSKSGSSASLAISGLQSEDEADYYCAAWDDSLNGWVFGGGTELTVLGQPKAAPSVTLFPPSSEELQANKATLVCLISDFYPGAVTVAWKADSSPVKAGVETTTPSKQSNNKYAASSYLSLTPEQWKSHRSYSCQVTHEGSTVEKTVAPTECS
notes: IgG1 mutein of 2A1; also called Ab-19
What is called EC50 (read off the curve) is the concentration giving half of the maximal effect. For the molecule B1, the “EC50 (read off the curve)” value was around 0.4 µg/mL.
